According to ChEMBL document CHEMBL3627664, “Towards the evaluation in an animal disease model: Fluorinated 17β-HSD1 inhibitors showing strong activity towards both the human and the rat enzyme” (Eur J Med Chem, 2015):
pIC50: −log10 of the molar value.

How the values were obtained:
[1] = target: T1, 17-beta-hydroxysteroid dehydrogenase type 1 (Homo sapiens, UniProt P14061)
T1 sequence (P14061 whole entry): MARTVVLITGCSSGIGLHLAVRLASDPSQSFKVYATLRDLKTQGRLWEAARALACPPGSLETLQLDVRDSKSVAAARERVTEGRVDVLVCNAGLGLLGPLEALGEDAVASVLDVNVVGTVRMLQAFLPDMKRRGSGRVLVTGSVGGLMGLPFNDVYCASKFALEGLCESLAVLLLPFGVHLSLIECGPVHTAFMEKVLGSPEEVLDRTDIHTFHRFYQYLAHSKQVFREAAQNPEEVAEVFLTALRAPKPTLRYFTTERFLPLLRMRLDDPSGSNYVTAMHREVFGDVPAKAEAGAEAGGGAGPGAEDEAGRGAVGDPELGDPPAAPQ

[2] = target: T2, Estradiol 17-beta-dehydrogenase 1 (Rattus norvegicus, UniProt P51657)
T2 sequence (P51657 whole entry): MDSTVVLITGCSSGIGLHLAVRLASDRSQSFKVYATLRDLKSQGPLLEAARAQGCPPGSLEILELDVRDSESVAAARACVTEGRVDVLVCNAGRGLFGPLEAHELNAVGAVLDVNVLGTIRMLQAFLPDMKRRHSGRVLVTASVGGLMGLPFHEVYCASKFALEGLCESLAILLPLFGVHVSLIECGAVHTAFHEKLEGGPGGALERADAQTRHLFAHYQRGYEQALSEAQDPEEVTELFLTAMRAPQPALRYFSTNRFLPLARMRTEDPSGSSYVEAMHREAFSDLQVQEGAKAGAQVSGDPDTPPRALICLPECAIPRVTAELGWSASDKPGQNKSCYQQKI

[3] = target: T3, Estradiol 17-beta-dehydrogenase 2 (Rattus norvegicus, UniProt Q62730)
T3 sequence (Q62730 whole entry): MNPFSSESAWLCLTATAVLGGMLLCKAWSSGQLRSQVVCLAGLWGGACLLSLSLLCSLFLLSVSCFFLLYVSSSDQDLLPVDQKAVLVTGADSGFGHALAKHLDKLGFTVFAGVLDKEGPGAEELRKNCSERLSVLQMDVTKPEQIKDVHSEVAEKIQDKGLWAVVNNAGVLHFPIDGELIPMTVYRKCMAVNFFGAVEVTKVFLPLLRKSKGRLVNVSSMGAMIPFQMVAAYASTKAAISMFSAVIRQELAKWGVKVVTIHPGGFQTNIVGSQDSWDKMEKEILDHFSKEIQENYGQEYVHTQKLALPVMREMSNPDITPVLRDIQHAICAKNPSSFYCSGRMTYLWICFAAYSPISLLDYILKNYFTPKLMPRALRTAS

[4] = target: T4, Estradiol 17-beta-dehydrogenase 2 (Mus musculus, UniProt P51658)
T4 sequence (P51658 whole entry): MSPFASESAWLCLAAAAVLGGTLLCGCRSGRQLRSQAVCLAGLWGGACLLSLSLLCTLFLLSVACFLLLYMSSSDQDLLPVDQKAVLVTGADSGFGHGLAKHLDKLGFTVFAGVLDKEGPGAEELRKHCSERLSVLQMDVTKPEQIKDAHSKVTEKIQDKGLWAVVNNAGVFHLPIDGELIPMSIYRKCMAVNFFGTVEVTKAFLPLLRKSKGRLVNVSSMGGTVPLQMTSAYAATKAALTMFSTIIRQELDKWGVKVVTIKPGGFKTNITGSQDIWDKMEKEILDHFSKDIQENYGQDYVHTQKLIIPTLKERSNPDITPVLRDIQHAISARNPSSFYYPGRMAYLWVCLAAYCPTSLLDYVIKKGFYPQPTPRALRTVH

Structure (SMILES): Nc1ccc(-c2ccc(C(=O)c3cccc(O)c3)s2)cc1
- pIC50 [1]: 6.84

Structure (SMILES): O=C(c1cccc(O)c1)c1ccc(-c2ccc(NS(=O)(=O)c3ccccc3)cc2)s1
- pIC50 [1]: 6.71

Structure (SMILES): N#Cc1cccc(S(=O)(=O)Nc2ccc(-c3ccc(C(=O)c4cccc(O)c4)s3)cc2)c1
- pIC50 [1]: 6.82

Structure (SMILES): O=C(c1cccc(O)c1)c1ccc(-c2cccc(NS(=O)(=O)c3ccccc3)c2)s1
- pIC50 [1]: 7.68

Structure (SMILES): O=C(c1cccc(O)c1)c1ccc(-c2cccc(NS(=O)(=O)c3cccs3)c2)s1
- pIC50 [1]: 7.41

Structure (SMILES): O=C(c1cccc(O)c1)c1ccc(-c2cccc(NS(=O)(=O)c3cccc(O)c3)c2)s1
- pIC50 [1]: 7.80

Structure (SMILES): CN(C(=O)c1cccc(O)c1)c1cccc(-c2ccc(C(=O)c3cccc(O)c3)s2)c1
- pIC50 [1]: 7.15

Structure (SMILES): O=C(c1cccc(O)c1)c1ccc(-c2cccc(NS(=O)(=O)c3ccccc3[N+](=O)[O-])c2)s1
- pIC50 [1]: 7.49

Structure (SMILES): O=C(c1cccc(O)c1)c1ccc(-c2cccc(NS(=O)(=O)c3cccc([N+](=O)[O-])c3)c2)s1
- pIC50 [1]: 7.33

Structure (SMILES): O=C(c1cccc(O)c1)c1ccc(-c2cccc(NS(=O)(=O)c3ccc([N+](=O)[O-])cc3)c2)s1
- pIC50 [1]: 7.38

Structure (SMILES): O=C(c1cccc(O)c1)c1ccc(-c2cccc(NS(=O)(=O)c3cccc([N+](=O)[O-])c3[N+](=O)[O-])c2)s1
- pIC50 [1]: 6.74

Structure (SMILES): O=C(c1cccc(O)c1)c1ccc(-c2cccc(NS(=O)(=O)c3ccccc3F)c2)s1
- pIC50 [1]: 7.30

Structure (SMILES): O=C(c1cccc(O)c1)c1ccc(-c2cccc(NS(=O)(=O)c3cccc(F)c3)c2)s1
- pIC50 [1]: 7.42

Structure (SMILES): O=C(c1cccc(O)c1)c1ccc(-c2cccc(NS(=O)(=O)c3ccc(F)cc3)c2)s1
- pIC50 [1]: 7.52

Structure (SMILES): O=C(c1cccc(O)c1)c1ccc(-c2cccc(NS(=O)(=O)c3ccc(Br)cc3)c2)s1
- pIC50 [1]: 7.30

Structure (SMILES): O=C(c1cccc(O)c1)c1ccc(-c2cccc(NS(=O)(=O)c3cc(F)c(Br)cc3F)c2)s1
- pIC50 [1]: 6.96

Structure (SMILES): CC(=O)Nc1cccc(S(=O)(=O)Nc2cccc(-c3ccc(C(=O)c4cccc(O)c4)s3)c2)c1
- pIC50 [1]: 6.51

Structure (SMILES): Cc1cccc(S(=O)(=O)Nc2cccc(-c3ccc(C(=O)c4cccc(O)c4)s3)c2)c1
- pIC50 [1]: 7.74

Structure (SMILES): COc1ccc(S(=O)(=O)Nc2cccc(-c3ccc(C(=O)c4cccc(O)c4)s3)c2)c(F)c1
- pIC50 [1]: 7.29

Structure (SMILES): O=C(c1cccc(O)c1)c1ccc(-c2cccc(NS(=O)(=O)c3ccc(O)cc3F)c2)s1
- pIC50 [1]: 6.95

Structure (SMILES): O=C(c1ccc(-c2cccc(NS(=O)(=O)c3ccccc3OC(F)(F)F)c2)s1)c1c(F)ccc(O)c1F
- pIC50 [2]: 7.10
- pIC50 [3]: 7.42

Structure (SMILES): O=C(c1ccc(-c2cccc(NS(=O)(=O)c3ccccc3C(F)(F)F)c2)s1)c1c(F)ccc(O)c1F
- pIC50 [1]: 8.70
- pIC50 [2]: 7.01
- pIC50 [3]: 7.31

Structure (SMILES): Cn1cnc(S(=O)(=O)Nc2cccc(-c3ccc(C(=O)c4c(F)ccc(O)c4F)s3)c2)c1
- pIC50 [1]: 8.22

Structure (SMILES): Cc1cc(NS(=O)(=O)C2CC2)cc(-c2ccc(C(=O)c3c(F)ccc(O)c3F)s2)c1
- pIC50 [1]: 8.30

Structure (SMILES): Cc1cc(-c2ccc(C(=O)c3c(F)ccc(O)c3F)s2)cc(N(C)S(=O)(=O)C2CC2)c1
- pIC50 [4]: 6.89
